Measured values: the supplement of paper PMC3334620
Whole data set: some 33,000 sequences, median “E-score (-0.5 to 0.5)” near -0.021, cut for the highest 2% near 0.32. The list shows a part of the results.

Target: T1, Zap1 (UniProt P47043)
T1 sequence: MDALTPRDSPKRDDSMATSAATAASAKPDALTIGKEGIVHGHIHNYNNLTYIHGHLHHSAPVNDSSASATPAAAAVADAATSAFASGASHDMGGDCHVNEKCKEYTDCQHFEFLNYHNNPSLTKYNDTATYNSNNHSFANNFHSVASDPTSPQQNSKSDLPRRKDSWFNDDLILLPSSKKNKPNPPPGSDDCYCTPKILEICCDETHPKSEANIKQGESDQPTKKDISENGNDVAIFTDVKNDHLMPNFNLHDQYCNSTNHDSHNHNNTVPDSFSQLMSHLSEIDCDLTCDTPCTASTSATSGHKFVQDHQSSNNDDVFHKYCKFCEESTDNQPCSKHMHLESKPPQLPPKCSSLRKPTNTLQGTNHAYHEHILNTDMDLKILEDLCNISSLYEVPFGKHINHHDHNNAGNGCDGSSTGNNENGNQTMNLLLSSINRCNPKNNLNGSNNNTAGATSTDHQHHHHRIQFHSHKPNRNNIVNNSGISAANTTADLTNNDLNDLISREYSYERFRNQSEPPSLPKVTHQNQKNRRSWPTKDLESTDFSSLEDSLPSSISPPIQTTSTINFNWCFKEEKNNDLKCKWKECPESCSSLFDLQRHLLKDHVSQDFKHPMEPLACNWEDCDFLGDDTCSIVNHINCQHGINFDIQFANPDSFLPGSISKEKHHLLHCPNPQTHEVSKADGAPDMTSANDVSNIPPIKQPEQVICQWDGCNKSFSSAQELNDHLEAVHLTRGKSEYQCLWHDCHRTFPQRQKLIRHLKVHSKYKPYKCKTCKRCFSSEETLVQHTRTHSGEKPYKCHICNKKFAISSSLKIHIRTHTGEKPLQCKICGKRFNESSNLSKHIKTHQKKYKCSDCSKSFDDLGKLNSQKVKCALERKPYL
Experiment: PBM E-score (8-mer binding enrichment) (E-score (-0.5 to 0.5)); higher = stronger / more preferred TF binding; most listed sequences are background and not binding sites
Details: protein concentration: 200 nM; construct: GST-full length
Summary of the method: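 Each ungapped eight-base word and its reverse complement, pooled, received an E-score from the Universal PBM Analysis Suite. Underlying scans, normalised with masliner, recorded fluorescent anti-GST bound to GST-tagged yeast transcription factors. These were applied at about 100-200 nM to universal all-10-mer Agilent arrays double-stranded by primer extension.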

| Sequence | PBM E-score |
| --- | --- |
| AAGACTAA | 0.0313 |
| TGATGGAA | -0.118 |
| ATGTCACA | 0.128 |
| GTTTAAAA | 0.0834 |
| AATGTGAG | -0.122 |
| AGCAGCCG | 0.0213 |
| AGAATGCG | -0.137 |
| TCAGCCAA | -0.0551 |
| ATCTCGCA | -0.0179 |
| ATTAAACG | 0.23 |
| CGACTGCC | -0.0988 |
| ACAGCTCG | -0.119 |
| GACCTTCA | 0.0992 |
| ACAGGCGA | -0.24 |
| CTAGTAAA | 0.206 |
| CTATCGTC | -0.187 |
| ACGAAAAC | 0.265 |
| CTGGCTTC | -0.221 |
| AAAGTCGT | -0.127 |
| AAGCGGCT | -0.0418 |
| CAAAACTG | 0.0208 |
| ATCCCAAC | -0.0432 |
| ACATGCCG | -0.241 |
| AAGGACGT | -0.0905 |
| TATGGGGA | 0.145 |

| Sequence | PBM E-score |
| --- | --- |
| ATCGGTAC | 0.134 |
| TAGCGCTA | -0.0121 |
| ATCATAGA | 0.0302 |
| CGCGGTGC | -0.00481 |
| AAACAGTG | 0.0759 |
| AGGGGAGG | 0.0257 |
| ATCCACAT | -0.146 |
| CAACTTCG | 0.0621 |
| CTTCCTGA | 0.0551 |
| AGCGTCCA | 0.0715 |
| AATATTTG | 0.12 |
| ATACGGGA | -0.049 |
| CGATTGAC | 8e-05 |
| CCTATATA | 0.229 |
| ACCCGACA | 0.168 |
| CAAGCTAA | 0.019 |
| ACGCCAGA | -0.0691 |
| AGACTCCG | -0.227 |
| GATTGCGA | -0.029 |
| CATATCAG | 0.0201 |
| AGATTCTG | -0.117 |
| CGGTTGAC | -0.0212 |
| CGTAAAGA | 0.0681 |
| CAGACCCA | 0.0103 |
| CTGCTAGA | -0.184 |

| Sequence | PBM E-score |
| --- | --- |
| GCGTCCTA | -0.163 |
| CCCGGCCG | -0.0333 |
| CATACATC | -0.0346 |
| CAAAGCCA | -0.186 |
| GGGTACCC | 0.469 |
| CCCAGCAC | -0.0416 |
| AATACTGG | 0.109 |
| TAAATCGA | 0.134 |
| ACCAGGCC | -0.0147 |
| GAGGAAAC | -0.0555 |
| CAGTGGGG | -0.143 |
| CCCGCTAA | -0.141 |
| ACCTATAA | 0.188 |
| AACAGATA | 0.0973 |
| CTGCTGTC | -0.144 |
| ATCGAGTC | -0.109 |
| GACTTACA | -0.126 |
| CACTAGTA | 0.0525 |
| GATGCCTA | -0.157 |
| GCGGTGCC | -0.0174 |
| GATGCCAC | -0.28 |
| GGTGTATA | -0.184 |
| AGTTTCGC | -0.0457 |
| ACCTTAAC | 0.358 |
| AACCGTCC | -0.00655 |

| Sequence | PBM E-score |
| --- | --- |
| ACCAGCCC | -0.0014 |
| ATTAAGAG | 0.0588 |
| CGTGACAG | -0.0781 |
| CACCACAC | -0.0631 |
| ATCCGACA | -0.129 |
| AGCGCGGG | -0.0416 |
| CAACATTG | -0.0114 |
| CCGAAGCA | -0.176 |
| GCTGGATA | 0.0267 |
| ATCTGCAC | -0.151 |
| CATGTAGA | -0.113 |
| AGACGATG | -0.191 |
| GACTTTCC | -0.0293 |
| GCCCAGGA | 0.0622 |
| GCGGCAGC | -0.362 |
| TAACTATA | 0.225 |
| GACTAGCA | -0.286 |
| AATCGAAT | -0.0387 |
| ACGCTGTA | 0.0193 |
| CTTTAGAA | 0.118 |
| ACGTAGGA | -0.12 |
| CTGCCGCA | -0.14 |
| CTATAATC | -0.017 |
| AGCGCCGC | -0.209 |
| GTCGTCGA | -0.164 |

| Sequence | PBM E-score |
| --- | --- |
| AATGCCGA | -0.149 |
| CACCCGAA | 0.3 |
| ACGAAATG | 0.0348 |
| AGCAGAGA | -0.167 |
| GGCGAAAA | 0.0311 |
| CCATCGCG | 0.222 |
| GCATTTAA | 0.177 |
| GAAGTCCA | 0.0624 |
| AGAAGGCA | -0.161 |
| CCGAGCAC | -0.0385 |
| AGTACGCC | -0.146 |
| ACGGTCTC | 0.17 |
| ATTAGTCG | 0.00798 |
| CACATCAG | -0.0384 |
| GGGTAGTA | 0.219 |
| CGGCTTAG | -0.0939 |
| ACTCCCTA | -0.307 |
| CCTAACAC | 0.146 |
| GGCAAGCC | -0.273 |
| AAACTTCT | 0.0376 |
| AAGGACAA | -0.0382 |
| AATTTGTG | 0.107 |
| CCGGCTAA | -0.18 |
| AACGCACT | 0.0749 |
| CTGGGACA | -0.175 |

| Sequence | PBM E-score |
| --- | --- |
| TAGCGCAA | -0.0297 |
| GCGTATTA | -0.00216 |
| GTAGCGCA | -0.174 |
| AATTACAA | 0.101 |
| AGATTTAT | 0.048 |
| AACATAAA | 0.136 |
| GGGGACGA | -0.238 |
| ACAACACG | -0.301 |
| TTAGGCAA | -0.0283 |
| CCATACGG | 0.0563 |
| ACTAGAGG | -0.0174 |
| GATCTAAA | -0.0138 |
| GGGAGCGA | -0.263 |
| ATCACTCA | 0.0763 |
| CCGAGTGA | 0.00132 |
| GACTCGCC | -0.251 |
| GATACTCA | -0.029 |
| ACAATCTA | -0.104 |
| GGGATGCA | -0.229 |
| CATCTGGG | -0.0798 |
| GCTTAGCC | -0.303 |
| ACGGCTTA | 0.0414 |
| CGCACACC | 0.022 |
| AGACACGA | -0.162 |
| TGACTGAA | -0.0715 |

| Sequence | PBM E-score |
| --- | --- |
| AACTAGAG | -0.0699 |
| ATCTACCG | 0.0761 |
| AGCTCCTA | -0.261 |
| CTATGCGC | -0.176 |
| GCTTTTCC | -0.0881 |
| CAACCTTC | 0.313 |
| AGTAAGCA | -0.0127 |
| GAGCATCA | -0.305 |
| GAGGGCTA | -0.27 |
| TCTGATCA | 0.0329 |
| TCTCGCAA | -0.0144 |
| GAGTGTTA | -0.0489 |
| ACTTTGAT | -0.0578 |
| AAAGTACA | 0.0715 |
| AGCCGTCC | -0.215 |
| ACATCCAC | 0.143 |
| AATGGTAC | 0.259 |
| AAAAATAG | 0.0926 |
| GGTGCTGA | -0.00403 |
| CCGGGTCG | 0.0687 |
| CGGCAAGA | -0.0749 |
| ACGGTGCT | 0.00765 |
